Results taken from ChEMBL document CHEMBL4888484, “Replenishing the malaria drug discovery pipeline: Screening and hit evaluation of the MMV Hit Generation Library 1 (HGL1) against asexual blood stage Plasmodium falciparum ,using a nano luciferase reporter read-out” (2022).
About 540 (0.36%) of roughly 150,000 compounds showed an effect of 50% or more. The list shows a part of the results.

What follows are compounds tested on Plasmodium falciparum (assay: Primary screen in NF54 nanoGlo assay, in single point, at 2uM, 72h; a lower Z score goes with more inhibition). Settings: timepoint 72 hour.
Format: functional, Erythrocyte
For `COc1cc(-c2nnc(NC(=O)Cc3cccc4ccccc34)o2)cc(OC)c1OC`, the “% Inhibition” value was -3% and the Z score was 0.42.
For `CCOc1nc(C)c(NC(=O)CC(C)C)c(C)n1`, the “% Inhibition” value was -4% and the Z score was 0.55.
For `O=C(CC(c1ccccc1)c1ccccc1)N(Cc1ccsc1)Cc1ccccn1`, the “% Inhibition” value was -2% and the Z score was 0.27.
`O=C(O)Cn1nc(C2CC2)c2c(C(F)(F)F)cc(C3CC3)nc21` was tested, and the “% Inhibition” value was -34% and the Z score was 3.95.
`O=C(COC[C@H]1CCCO1)NCCc1nccs1` was tested, and the “% Inhibition” value was -3% and the Z score was 0.39.
For `Cc1ncsc1C(=O)N1CC=C(n2c(=O)[nH]c3ccccc32)CC1`, the “% Inhibition” value was -7% and the Z score was 1.34.
With `O=C1Nc2ccccc2S(=O)(=O)N1Cc1csc(-c2ccoc2)n1` the “% Inhibition” value was -12% and the Z score was 1.66.
In the case of `Cn1c(-c2n[nH]c3c2CCCC3)nnc1N1CCCC2(CC2)C1`, the “% Inhibition” value is reported as 11% and the Z score is reported as -1.98.
In the case of `Cc1cc(Cl)c(C(=O)NC(C)(CO)CO)cc1C`, the “% Inhibition” value is reported as 3% and the Z score is reported as -0.51.
In the case of `CCc1[nH]c(Cc2ccccc2)cc1C(=O)O`, the “% Inhibition” value is reported as -6% and the Z score is reported as 0.94.
With `Cc1ccc(NS(=O)(=O)c2ccc3c(c2)C(C)(C)CN3CC(=O)N2CCCC2)cc1C` the “% Inhibition” value was -7% and the Z score was 1.41.
With `COC(=O)c1cncc(CNC(=O)CCOc2ccc(C)c(C)c2)c1` the “% Inhibition” value was -6% and the Z score was 0.91.
`COCCN1CN(C(=O)N[C@@H](C2CCCC2)C(F)(F)F)CC1=O` was tested, and the “% Inhibition” value was -11% and the Z score was 1.91.
`CCN1CCN(C(=O)CN2C(=O)COc3ccc(C(=O)N4CCCC4)cc32)CC1` was tested, and the “% Inhibition” value was 15% and the Z score was -2.01.
`CC(C)c1cccc(OCC(=O)c2ccc3c(c2)N(CC(=O)N2CCCC2)C(=O)CO3)c1` was tested, and the “% Inhibition” value was 10% and the Z score was -1.22.
In the case of `CC(C)n1c(=O)c(NCc2cccc(C(F)(F)F)c2)nc2ccncc21`, the “% Inhibition” value is reported as 24% and the Z score is reported as -2.33.
`O=C(NCC[C@H](O)C1CC1)Nc1cccs1` was tested, and the “% Inhibition” value was -15% and the Z score was 2.17.
`NC(=O)C1(NC(=O)c2cc(-c3ccc(O)cc3)n[nH]2)CCCC1` was tested, and the “% Inhibition” value was -7% and the Z score was 1.24.
For `CCCn1nc(COc2ccc(F)cc2)nc1[C@@H](N)Cc1c[nH]cn1`, the “% Inhibition” value was 2% and the Z score was -0.36.
With `O=C(c1ccno1)N1CCC(c2nnc(-c3ccco3)o2)CC1` the “% Inhibition” value was -16% and the Z score was 2.81.
With `CCOC1CC2(CCN(Cc3ccc4cn[nH]c4c3)C2)C1` (configuration not stated) the “% Inhibition” value was -8% and the Z score was 0.81.
For `CCNc1ccnc(NCc2ccc3[nH]c(C)c(C)c3c2)n1`, the “% Inhibition” value was -8% and the Z score was 0.83.
`COc1ccccc1CN1COc2cc3c(cc2C1)OCO3` was tested, and the “% Inhibition” value was 56% and the Z score was -4.75.
With `Cc1nccn1-c1ccc(N2CCN(S(=O)(=O)CCOc3ccc(F)cc3)CC2)nn1` the “% Inhibition” value was -19% and the Z score was 3.7.
In the case of `Cn1ccnc1CS(=O)(=O)c1ccccc1`, the “% Inhibition” value is reported as -6% and the Z score is reported as 0.76.
In the case of `c1cc(-c2nc(-c3cnccn3)no2)nc(-n2cccn2)c1`, the “% Inhibition” value is reported as 16% and the Z score is reported as -1.86.
`Cc1cnn(CCNC(=O)c2cccn2C2CC2)c1` was tested, and the “% Inhibition” value was -15% and the Z score was 1.93.
With `O=C(C#Cc1ccccc1)NC1CCN(CC2(O)CCCCC2)CC1` the “% Inhibition” value was 2% and the Z score was -0.2.
With `N#CCCN(Cc1csnn1)CC1CC1` the “% Inhibition” value was -2% and the Z score was 0.22.
`CC(CNC1CCN(C(C)c2ccncc2)CC1)c1ccccc1` (configuration not stated) was tested, and the “% Inhibition” value was 6% and the Z score was -0.74.
`Cc1cnc(CC[C@H]2CCCN2C(=O)CN2CCCC2=O)n1CC1CC1` was tested, and the “% Inhibition” value was 27% and the Z score was -3.7.
With `COc1cccc(N2CCN(C(=O)[C@@H]3CCNC3=O)CC2)c1` the “% Inhibition” value was -7% and the Z score was 0.92.
In the case of `CO[C@@H](C)C(=O)N(CC(F)F)c1cccc(Cl)c1`, the “% Inhibition” value is reported as -10% and the Z score is reported as 1.37.
In the case of `CC(=O)N1C[C@H](NS(=O)(=O)C2CC2)[C@@H](c2ccccc2)C1`, the “% Inhibition” value is reported as -11% and the Z score is reported as 1.27.
`Cc1ncc(S(=O)(=O)NCCc2cccnc2)cc1C#N` was tested, and the “% Inhibition” value was 7% and the Z score was -0.79.
In the case of `Cc1ccnc(OCC2CCNCC2)c1`, the “% Inhibition” value is reported as -18% and the Z score is reported as 2.09.
With `Cn1cc(C(=O)N2CC[C@H](c3cccc(Cl)c3)C2)c(=O)[nH]c1=O` the “% Inhibition” value was 8% and the Z score was -1.32.
`Cc1ccc2[nH]c(-c3cc4n(n3)CCN(C(=O)N3CCN(C)CC3)C4)nc2c1` was tested, and the “% Inhibition” value was -6% and the Z score was 0.7.
With `CC(OCC(F)(F)F)C(=O)NC(CNC(=O)OC(C)(C)C)C1CCCC1` (configuration not stated) the “% Inhibition” value was -6% and the Z score was 1.15.
With `Cc1cc(CN(C)C(=O)[C@H](C)NC(=O)c2ccoc2)no1` the “% Inhibition” value was -7% and the Z score was 1.28.
With `Cc1ccc(-n2cc(-c3cn(Cc4ccoc4)nn3)cn2)cc1C` the “% Inhibition” value was -16% and the Z score was 2.77.
In the case of `CC(=O)N1CCN(C(=O)Nc2nc3ccccc3s2)CC1`, the “% Inhibition” value is reported as 0% and the Z score is reported as -0.07.
In the case of `O=C(c1ccc(-c2c[nH]c(C(=O)N3CCOCC3)c2)cc1)N1CCCCCC1`, the “% Inhibition” value is reported as -4% and the Z score is reported as 0.77.
With `O=C(CS(=O)(=O)Cc1ccccc1)Nc1ccc2c(c1)OCO2` the “% Inhibition” value was -4% and the Z score was 0.74.
`COCc1nc(NCCc2csc(C)c2C)cc([C@H]2C[C@@H](N)C2)n1` was tested, and the “% Inhibition” value was 12% and the Z score was -1.38.
`C#CC(C)(C)OCC(O)CN1CCCCC1C` (configuration not stated) was tested, and the “% Inhibition” value was -15% and the Z score was 2.01.
For `CCN(C(=O)N[C@@H](C)c1csc(C)n1)C1CCCCC1`, the “% Inhibition” value was -9% and the Z score was 0.94.
For `CN1Cc2ccc(CN(C)C(=O)Cn3ccc(=O)[nH]c3=O)cc2C1`, the “% Inhibition” value was -19% and the Z score was 1.77.
With `COc1cc(C2CN(C(=O)c3ccccc3F)CC2C(=O)N2CCCC2)cc(OC)c1OC` (configuration not stated) the “% Inhibition” value was -16% and the Z score was 2.29.
With `Cc1cc(NC(=O)NCCc2ccc(O)cc2)nn1C` the “% Inhibition” value was -3% and the Z score was 0.49.
With `O=C(c1ccc(F)cc1)N1CCN(Cc2nnsc2Cl)CC1` the “% Inhibition” value was -3% and the Z score was 0.35.
For `CC(=O)N1CCCN(C(=O)N[C@@H](C)c2ccccn2)CC1`, the “% Inhibition” value was -10% and the Z score was 1.28.
For `Cc1cccc(CNC(=O)N[C@H]2CC[C@H](O)CC2)c1Br`, the “% Inhibition” value was 29% and the Z score was -3.26.
`CC(C)[C@H](C)n1ncc2[nH]c(CC(C)(C)C)nc21` was tested, and the “% Inhibition” value was 2% and the Z score was -0.24.
In the case of `CCn1ncc(NC(=O)N[C@H]2CCOC23CCCC3)c1C(F)(F)F`, the “% Inhibition” value is reported as -11% and the Z score is reported as 1.67.
With `Cc1ccc(NC(=O)[C@@H]2CNC[C@H](C(=O)N[C@H]3CC[C@H](O)CC3)C2)cc1` the “% Inhibition” value was -5% and the Z score was 0.8.
With `Cc1cc(C(=O)Nc2ccc(S(=O)(=O)N3CCc4ccccc43)cc2)no1` the “% Inhibition” value was -6% and the Z score was 1.01.
In the case of `CCc1nn(C)cc1C(=O)NCc1csc(-c2ccco2)n1`, the “% Inhibition” value is reported as -3% and the Z score is reported as 0.41.
For `Cc1noc(-c2cccc(F)c2)c1C(=O)N[C@@H](C)CCc1ccccc1`, the “% Inhibition” value was -1% and the Z score was 0.14.
With `COc1ccc(COCCN2CCC(c3ncco3)CC2)cc1` the “% Inhibition” value was -8% and the Z score was 1.42.
In the case of `C=C(C)C[C@H](C)C(=O)NCCc1cn2cccnc2n1`, the “% Inhibition” value is reported as -8% and the Z score is reported as 1.51.
With `CCn1ccc2c(cc(C(=O)Nc3ccc(C)c(Cl)c3)n2C)c1=O` the “% Inhibition” value was 10% and the Z score was -1.81.
`CS(=O)(=O)NC1CCCCC1NC(=O)C1CC1c1c(F)cccc1F` (configuration not stated) was tested, and the “% Inhibition” value was -5% and the Z score was 0.77.
`COc1ccc(NC(=O)Cn2nc3n(c2=O)C(=O)N(c2ccccc2)C3)cc1` was tested, and the “% Inhibition” value was -3% and the Z score was 0.62.
With `Cc1nncn1C1CCN(S(=O)(=O)c2ccc(Cl)cc2)CC1` the “% Inhibition” value was -11% and the Z score was 1.89.
`Nc1cc(C(=O)NCCOc2ccccc2F)n[nH]1` was tested, and the “% Inhibition” value was -10% and the Z score was 1.64.
With `CC1(C)CN(Cc2ccncc2)CC[S@@+]1[O-]` the “% Inhibition” value was 39% and the Z score was -3.98.
In the case of `CCn1ncc(Br)c1C(=O)NCc1cscn1`, the “% Inhibition” value is reported as -19% and the Z score is reported as 2.94.
For `Cc1nc(C)c(C)c(N2CCC[C@H](c3cc(O)ncn3)C2)n1`, the “% Inhibition” value was 4% and the Z score was -0.49.
In the case of `Cc1c(NCc2ccccn2)cccc1C(=O)N(C)C[C@H]1CCCCN1C`, the “% Inhibition” value is reported as -10% and the Z score is reported as 1.36.
For `OC(CN[C@H]1CCO[C@H](c2cccnc2)C1)c1c(F)cccc1F` (some centres not stated), the “% Inhibition” value was -9% and the Z score was 1.48.
For `OC1CCN(c2cc(N3CCO[C@H](c4ccc(Cl)cc4)C3)ncn2)CC1`, the “% Inhibition” value was -7% and the Z score was 0.75.
For `Cc1csc(S(=O)(=O)NC(c2ccc3c(c2)CCO3)[C@H]2C[C@@H](O)C2)c1` (some centres not stated), the “% Inhibition” value was 1% and the Z score was -0.13.
In the case of `CCOCC(=O)NCC1(CC(C)C)CCC1`, the “% Inhibition” value is reported as 9% and the Z score is reported as -1.31.
With `Cc1cccc(CN2CCC(n3nccc3NC(=O)c3ccc4c(c3)OCO4)CC2)n1` the “% Inhibition” value was -13% and the Z score was 1.78.
With `CCC[C@H](C)c1cc(NC(=O)Cc2ccc(C)nc2)[nH]n1` the “% Inhibition” value was -9% and the Z score was 0.96.
In the case of `CN(C)CCCNC(=O)C1CCN(c2nc3ccc(-c4ccc(F)cc4)nc3s2)CC1`, the “% Inhibition” value is reported as 16% and the Z score is reported as -1.72.
`Cc1oc(C)c(C(=O)N(C)Cc2cnn(C)c2)c1C` was tested, and the “% Inhibition” value was 12% and the Z score was -1.24.
`Cc1ccc(CN(CCO)CCN2CCO[C@@H](C)C2)o1` was tested, and the “% Inhibition” value was 2% and the Z score was -0.37.
In the case of `CCN(CC)[C@H](CNC(=O)c1[nH]c(C)c(C(=O)OC)c1C)Cc1ccccc1`, the “% Inhibition” value is reported as 7% and the Z score is reported as -1.11.
In the case of `CCCCc1ccc(N(C)C(=O)Cn2cn[nH]c2=O)cc1`, the “% Inhibition” value is reported as -5% and the Z score is reported as 0.51.
In the case of `O=C(CN(CC(=O)NCc1ccco1)S(=O)(=O)c1ccc(Br)cc1)NCc1ccco1`, the “% Inhibition” value is reported as -3% and the Z score is reported as 0.24.
For `COC[C@H]1CN(C)CC12CCN(C(=O)Cc1cccc(Cl)c1)CC2`, the “% Inhibition” value was 14% and the Z score was -1.62.
With `O=C(NC1CCOCC1)c1cnc(-c2ccccn2)nc1O` the “% Inhibition” value was -5% and the Z score was 0.86.
`CC(C)O[C@H]1C[C@@H](NC(=O)c2cccc(F)c2F)C1` was tested, and the “% Inhibition” value was 1% and the Z score was -0.08.
`COc1ccc(F)c(CN2CCC[C@@](O)(CN3CCN(C)C(=O)C3)C2=O)c1` was tested, and the “% Inhibition” value was -1% and the Z score was 0.14.
